# Reference: PMC4336329 (PLoS ONE, 2015)
# Screen size: about 310,000 compounds; about 2,200 (0.71%) showed an effect of 50% or more. Effects have a minus sign here. This is one part of the list.
# Biological target: human ether-à-go-go-related gene (hERG) potassium channel (human, UniProt Q12809)
# Assay: primary screen, population patch clamp on CHO cells stably expressing hERG
# Chain of human ether-à-go-go-related gene (hERG) potassium channel (Q12809 whole entry, looked up): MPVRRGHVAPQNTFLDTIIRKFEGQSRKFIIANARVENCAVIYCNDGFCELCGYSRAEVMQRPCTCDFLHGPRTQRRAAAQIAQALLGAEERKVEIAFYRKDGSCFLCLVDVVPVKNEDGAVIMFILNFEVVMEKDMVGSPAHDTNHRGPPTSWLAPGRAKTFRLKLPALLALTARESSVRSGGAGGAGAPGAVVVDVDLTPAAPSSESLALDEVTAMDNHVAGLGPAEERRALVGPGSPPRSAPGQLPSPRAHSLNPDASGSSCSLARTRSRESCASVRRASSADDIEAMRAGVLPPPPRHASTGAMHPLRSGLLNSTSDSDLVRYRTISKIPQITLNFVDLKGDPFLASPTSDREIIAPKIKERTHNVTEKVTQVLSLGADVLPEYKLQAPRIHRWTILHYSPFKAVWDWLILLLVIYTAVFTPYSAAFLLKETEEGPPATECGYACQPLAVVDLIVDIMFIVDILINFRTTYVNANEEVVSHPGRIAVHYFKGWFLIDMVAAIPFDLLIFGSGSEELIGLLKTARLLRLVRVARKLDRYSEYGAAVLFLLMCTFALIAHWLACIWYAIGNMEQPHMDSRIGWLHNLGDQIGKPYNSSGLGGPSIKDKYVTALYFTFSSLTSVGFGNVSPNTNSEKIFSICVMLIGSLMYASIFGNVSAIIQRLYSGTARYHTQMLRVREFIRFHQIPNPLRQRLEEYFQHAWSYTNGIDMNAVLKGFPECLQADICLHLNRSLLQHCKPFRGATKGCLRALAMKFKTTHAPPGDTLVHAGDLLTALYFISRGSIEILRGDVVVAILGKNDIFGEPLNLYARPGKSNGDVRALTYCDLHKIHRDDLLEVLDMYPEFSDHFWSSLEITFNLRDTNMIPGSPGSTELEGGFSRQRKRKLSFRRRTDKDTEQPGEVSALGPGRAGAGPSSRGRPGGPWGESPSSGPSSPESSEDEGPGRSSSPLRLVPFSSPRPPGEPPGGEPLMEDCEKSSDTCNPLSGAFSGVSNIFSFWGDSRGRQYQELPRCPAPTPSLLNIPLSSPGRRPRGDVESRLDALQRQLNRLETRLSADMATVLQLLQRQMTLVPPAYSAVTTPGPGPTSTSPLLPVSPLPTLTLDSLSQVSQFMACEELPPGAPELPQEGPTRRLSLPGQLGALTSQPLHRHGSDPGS
row,Structure (SMILES),"hERG current change (%, negative = inhibition) at 1uM [%]"
1,Cc1cc(C(=O)NCCC(c2ccccc2)c2ccccc2)c(C)o1,-2.51
2,CCCCOc1ccc(C(=O)NCC(=O)OCC(=O)N2CCN(S(=O)(=O)c3ccc(C)cc3C)CC2)cc1,5.53
3,O=C(c1cc2c(s1)CCCCC2)N1CCN(c2ncccn2)CC1,0.784
4,CN(C)c1cc(NC(=O)CNC(C)(C)C)c2ccccc2n1.O=C(O)C(=O)O,2.05
5,CCOC(=O)N1CCC(N2CCN(S(=O)(=O)c3ccc(NC(C)=O)cc3)CC2)CC1.O=C(O)C(=O)O,-1.69
6,Cc1ccn2c(=O)nc(SCC(=O)Nc3ccc4c(c3)OCCO4)nc2c1,-3.93
7,Nc1nonc1-n1nnc(C(=O)N/N=C/c2ccccc2)c1CSc1ccccc1,11.7
8,C/C(CC(=O)Nc1ccc(Cl)c(Cl)c1)=N\NC(=O)Cc1ccccc1,4.75
9,COc1ccc(-n2nc3c(c2NC(=O)C2CC(=O)N(c4ccccc4)C2)CS(=O)(=O)C3)cc1 (centres unmarked),9.67
10,NCCCC[C@@H]1NC(=O)[C@H](CCC(=O)O)NC(=O)c2cc([N+](=O)[O-])cc(I)c2OCC[C@@H](C(N)=O)NC1=O,8.25
11,CCOC(=O)C(C)Sc1nc2ccccc2c(=O)n1CC1CCCCC1 (centres unmarked),-0.0096
12,Cc1ccc(NCCC(=O)c2cccs2)cc1,9.37
13,Nc1nc(Nc2ccccc2)nc(NC2CCCCC2)c1[N+](=O)[O-],2.05
14,Cl.N/C(=N\O)C1COc2ccccc2O1 (centres unmarked),18
15,COc1cccc2cc(C(=O)NCc3ccccn3)c(=O)oc12,6.54
16,CCC(CC)c1nn2c(N)c(/C=C3\C=Nc4ccccc43)c(=O)nc2s1,0.425
17,CCN(CC(=O)NC(=O)NC1CCCCC1)Cc1ccccc1,1.4
18,CCCCNC(=O)CCn1c(=O)c2ccccc2n(Cc2ccc(F)cc2)c1=O,0.583
19,Cc1ccc(C(=O)N(C)CC(=O)Nc2ccc(Cl)c(C(F)(F)F)c2)cc1S(=O)(=O)N1CCCCC1,11.8
20,O=C(Nc1ccc(Oc2cccnc2)cc1)C1CCN(Cc2cc(Cl)ccc2O)CC1,-1.38
21,CC1(c2ccc(Cl)cc2Cl)NC(=O)N(CC(=O)NC2CCCCC2)C1=O (centres unmarked),9.22
22,Cc1[nH]c2ccc(C(=O)N3CCN(C)CC3)cc2c1C,26.9
23,CCOC(=O)N1CCN(c2ccc(C(=O)CC)cc2F)CC1,12.4
24,CCN(CC)CCCNC(=S)N(Cc1cccs1)Cc1cc2cc3c(cc2[nH]c1=O)OCCO3,7.98
25,COC(=O)c1c(N2C(=O)[C@H]3[C@@H](C2=O)[C@]2(C(=O)Nc4ccc(C)cc42)N2CCC[C@@H]32)sc(C)c1C,8.47
26,CC(=O)c1cccc(NC(=O)C2CC(=O)N(c3ccc4c(c3)OCCO4)C2)c1 (centres unmarked),6.81
27,CCc1ccc(-c2nc(CS(=O)CC(=O)NC3CCCCCC3)c(C)o2)cc1 (centres unmarked),16.5

row,Structure (SMILES),"hERG current change (%, negative = inhibition) at 1uM [%]"
1,Cc1cc(NC(=O)CSc2nnc(C)n2-c2ccccc2C)no1,11.4
2,Cc1nc(C(C)NC(=O)CCc2nnc(-c3ccsc3)o2)cs1 (centres unmarked),7.2
3,Nc1ccc2c(c1)COC2=O,9.85
4,CC(C)(Oc1ccc(Cl)cc1)C(=O)NC1=NN(c2ccccc2)C(=O)C1,-3.57
5,Cc1ccc(S(=O)(=O)Nc2ccc(Cl)cc2C(=O)c2ccccc2)cc1,12.8
6,O=C1NC(=O)/C(=C\c2ccccc2OCc2cccc([N+](=O)[O-])c2)N1,7.83
7,Cc1ccc(S(=O)(=O)/C(=C\N(C)C)c2cnc(Cl)s2)cc1,9.2
8,O=C1ON=C(c2ccc(Cl)c([N+](=O)[O-])c2)/C1=C/c1cccc([N+](=O)[O-])c1O,16.5
9,O=C(/C=C/c1ccco1)N(Cc1ccc(Cl)cc1)C1CCS(=O)(=O)C1 (centres unmarked),-19.2
10,FC(F)(F)c1ccc(-c2nnc(-c3ccccn3)c(-c3ccccn3)n2)nc1,11.6
11,COc1ccc(/C=C(\NC(=O)c2ccccc2)C(=O)NCCN2CCOCC2)cc1,-3.04
12,CC(C)(C)C(=O)Nc1ccc(S(=O)(=O)N2CCCC2)cc1,6.72
13,CC(C)OC(=O)/C(=C\c1cccc2ccccc12)NC(=O)c1ccccc1,2.63
14,CCOC(=O)C1CCN(CC(O)COCc2ccc(Cl)cc2)CC1.Cl (centres unmarked),-58.6
15,O=C(N/C(=C/c1ccc(F)cc1)C(=O)N1CCCCC1)c1ccco1,7.27
16,COc1ccccc1OCc1cc(C(=O)N2CCCC(OCc3cccnc3)C2)no1 (centres unmarked),-1.83
17,COCCN(C(=O)COC(=O)/C=C/c1ccc(OC)c(OC)c1)c1c(N)n(Cc2ccccc2)c(=O)[nH]c1=O,4.93
18,CC(=O)c1cccc(S(=O)(=O)N2CCC(C(=O)Nc3cccc(C(=O)NC4CC4)c3)CC2)c1,9.97
19,CN(C)c1ccc(NC(=O)Nc2ccc3c(c2)nnn3C)cc1,5.98
20,Cc1ccc(-n2nnc3c(=O)n(CC(=O)NCc4ccco4)cnc32)cc1,1.42
21,COc1ccc(NC(=O)c2csc3c2CCCCC3)c(OC)c1,-0.286
22,O=C(NCC1CCCO1)Nc1cc(Cl)cc(Cl)c1 (centres unmarked),3.82
23,Cc1ccc(NC(=S)N/N=C/c2ccc([N+](=O)[O-])s2)cc1,2.76
24,COc1ccc2c(c1O)C13CCN(C)C(C2)C1CCC(=O)C3 (centres unmarked),3.58
25,O=C(NNC(=O)C1CCN(c2ncccn2)CC1)c1ccc(Cl)cc1,11.7
26,O=C(NC1CCCCCC1)c1c(F)c(F)c(F)c(F)c1F,6.52
